The supplement of paper PMC12217912
This is one part of the list. Sequences were assembled here from the parent chain. Values near 0.05 are background.

B1: TEV protease; numbered along this chain (parent)
chain: MGESLFKGPRDYNPISSSICHLTNESDGHTTSLYGIGFGPFIITNKHLFRRNNGTLVVQSLHGVFKVKDTTTLQQHLVDGRDMIIIRMPKDFPPFPQKLKFREPQREERICLVTTNFQTKSMSSMVSDTSCTFPSGDGIFWKHWIQTKDGQCGSPLVSTRDGFIVGIHSASNFTNTNNYFTSVPKNFMELLTNQEAQQWVSGWRLNADSVLWGGHKVFMVKPEEPFQPVKEATQL

Variants of: B1
Assay: raw area under fraction-flipped curve 0-4 h after induction (AUC4h, not background-subtracted), DNA-recorder readout of cleavage of the substrate (dimensionless); higher = more cleavage of the substrate by the protease variant
Conditions: temperature: 34 °C; time window: 0-4 h after rhamnose induction
Description: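 In vivo DNA recorder in E. coli TOP10(DE3) ΔrhaA at 34 °C. Each TEVp single-site mutant (parent TEVp 0) is paired with a single-site variant of the 7-mer TEVs (canonical ENLYFQ|S). The substrate sits between flexible linkers in a Bxb1-sfGFP-TEVs-SsrA fusion, so cleavage stabilises Bxb1 and speeds flipping of a recombination array, read by NGS. The value is the raw area under the fraction-flipped curve over 0-4 h after rhamnose induction (AUC4h), with ≥20 reads per time point. It is not background-subtracted; inactive controls average about 0.047.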
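Note: Bxb1 expression induced with 0.2% (w/v) L-rhamnose at OD600 near 0.5, cultures sampled hourly, flipped fraction per protease–substrate barcode pair counted by paired-end Illumina sequencing.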

| Variant | area with substrate ENLYFQC | area with substrate ENLYFQM | area with substrate ENLYFQS | area with substrate ENLYFQD | area with substrate ENLYFQG | area with substrate ENLYFQH | area with substrate ENLYFQI | area with substrate ENLYFQL | area with substrate ENLYFQN | area with substrate ENLYFQP | area with substrate ENLYFQT | area with substrate ENLYFQY | area with substrate ENLYFQK | area with substrate ENLYFQR | area with substrate ENLYFQV | area with substrate ENLYFQW | area with substrate ENLYFQQ | area with substrate ENLYFQE | area with substrate ENLYFQF |
| --- | --- | --- | --- | --- | --- | --- | --- | --- | --- | --- | --- | --- | --- | --- | --- | --- | --- | --- | --- |
| P89D | 0.121 | 0.0848 | 0.0972 | – | – | – | – | – | – | – | – | – | – | – | – | – | – | – | – |
| W141L | 0.0627 | 0.0511 | 0.0542 | 0.0465 | 0.0646 | 0.0659 | 0.0659 | 0.0428 | 0.0533 | 0.0544 | 0.0538 | 0.0388 | – | – | – | – | – | – | – |
| F92Q | 0.109 | 0.0845 | 0.0989 | 0.071 | 0.0904 | – | 0.0518 | 0.0544 | 0.0822 | – | 0.0882 | 0.0638 | 0.0549 | 0.0549 | 0.0538 | 0.0665 | – | – | – |
| H76Y | 0.0886 | – | 0.084 | – | 0.0469 | 0.0694 | 0.0546 | 0.0421 | 0.076 | – | 0.0647 | – | 0.0673 | 0.0575 | 0.0518 | 0.0674 | 0.0695 | – | – |
| T23F | 0.087 | 0.0818 | 0.0909 | – | – | 0.0818 | 0.046 | 0.0357 | 0.0707 | 0.0378 | – | 0.0965 | 0.0514 | 0.0776 | 0.0375 | 0.0707 | 0.082 | – | – |
| L99T | 0.0763 | 0.0953 | 0.109 | – | – | 0.0789 | – | – | 0.136 | – | 0.0424 | – | 0.0587 | 0.0656 | – | 0.0522 | 0.0491 | 0.0699 | – |
| K216Y | 0.0913 | 0.0707 | 0.0801 | – | – | 0.07 | – | – | – | 0.0599 | 0.0519 | 0.0686 | 0.0533 | 0.0364 | 0.0503 | – | – | – | 0.0555 |
| D79Y | 0.148 | – | 0.0857 | – | 0.0536 | – | 0.0677 | – | 0.0845 | – | 0.0549 | – | 0.0664 | – | – | 0.0791 | – | – | – |
| R50A | 0.102 | 0.092 | 0.116 | – | 0.0812 | – | 0.0724 | 0.0937 | 0.0866 | – | 0.0698 | – | 0.0667 | 0.0681 | 0.058 | 0.0708 | – | – | – |
| D82C | 0.0474 | – | 0.0573 | – | 0.0478 | – | 0.0529 | 0.0768 | 0.0444 | – | – | – | 0.0654 | 0.0466 | – | 0.0345 | – | – | – |
| Q146E | 0.119 | 0.0815 | 0.0966 | 0.0737 | 0.0928 | – | – | 0.0703 | 0.0755 | 0.0657 | 0.0675 | – | – | 0.0591 | – | 0.0482 | 0.0978 | 0.0739 | – |
| P89I | 0.0822 | 0.0509 | 0.0669 | – | – | 0.0608 | – | – | 0.0399 | 0.0403 | 0.0555 | 0.0674 | – | 0.0524 | – | – | – | – | 0.0465 |
| H62E | 0.101 | 0.0806 | 0.0977 | – | 0.106 | 0.0576 | – | – | 0.0681 | 0.0441 | 0.056 | – | – | 0.0769 | – | 0.0657 | – | 0.0682 | 0.0786 |
| I84K | 0.0589 | – | 0.0566 | – | 0.0558 | 0.0499 | 0.0508 | 0.0482 | – | – | 0.058 | 0.0545 | 0.046 | – | – | 0.0607 | – | 0.042 | – |
| N206Q | 0.144 | – | 0.097 | 0.0699 | – | 0.0762 | 0.0463 | – | 0.086 | – | – | – | – | – | – | – | – | – | – |
| L33A | 0.101 | – | 0.0934 | 0.0667 | 0.0949 | – | 0.0668 | 0.0377 | – | – | 0.073 | – | 0.0384 | – | – | 0.0601 | – | – | 0.0648 |
| S182D | 0.0809 | – | 0.0759 | – | 0.0755 | – | – | 0.0571 | 0.0642 | – | – | – | – | – | – | – | – | – | – |

| Variant | area with substrate ENLYFQC | area with substrate ENLYFQM | area with substrate ENLYFQS | area with substrate ENLYFQD | area with substrate ENLYFQG | area with substrate ENLYFQH | area with substrate ENLYFQI | area with substrate ENLYFQL | area with substrate ENLYFQN | area with substrate ENLYFQP | area with substrate ENLYFQT | area with substrate ENLYFQY | area with substrate ENLYFQK | area with substrate ENLYFQR | area with substrate ENLYFQV | area with substrate ENLYFQW | area with substrate ENLYFQQ | area with substrate ENLYFQE | area with substrate ENLYFQF |
| --- | --- | --- | --- | --- | --- | --- | --- | --- | --- | --- | --- | --- | --- | --- | --- | --- | --- | --- | --- |
| T181Q | 0.0624 | – | 0.0675 | – | – | – | – | – | – | 0.0639 | – | – | – | 0.0519 | – | – | – | 0.058 | – |
| F226P | 0.107 | – | 0.1 | – | – | – | – | 0.0499 | – | – | – | – | – | – | – | 0.0665 | – | – | – |
| F95P | 0.0575 | 0.0486 | 0.0577 | – | 0.0513 | – | – | 0.0437 | – | – | – | 0.0998 | – | 0.048 | 0.0331 | 0.0466 | – | 0.0783 | 0.0515 |
| N116G | 0.088 | – | 0.0996 | – | 0.0967 | – | – | 0.0605 | 0.0876 | 0.1 | 0.0562 | – | – | 0.0498 | – | – | – | – | – |
| S123L | 0.124 | 0.0501 | 0.104 | 0.0628 | – | – | 0.071 | – | 0.0911 | – | 0.0731 | – | 0.0632 | 0.0061 | – | – | 0.0919 | – | – |
| L73M | 0.0865 | 0.0833 | 0.0904 | – | 0.076 | 0.067 | – | 0.0187 | 0.0699 | – | 0.0442 | 0.0699 | 0.0804 | 0.0627 | – | – | 0.0551 | – | 0.0312 |
| L191N | 0.0672 | 0.0289 | 0.0589 | 0.0467 | 0.0597 | 0.0533 | 0.0418 | 0.0686 | 0.0585 | – | 0.0529 | 0.056 | 0.0461 | 0.0465 | 0.0483 | 0.0461 | 0.0512 | 0.0455 | – |
| M188V | 0.0886 | 0.093 | 0.103 | – | 0.109 | – | 0.0573 | 0.0609 | – | 0.0565 | 0.0487 | – | – | 0.0574 | 0.0766 | – | – | – | – |
| T233V | 0.101 | – | 0.101 | – | – | – | 0.0691 | 0.0608 | 0.0709 | 0.0616 | – | – | 0.0618 | 0.0534 | – | 0.0626 | – | – | 0.084 |
| Y12T | 0.124 | 0.0908 | 0.106 | 0.0754 | 0.0828 | – | – | 0.0573 | 0.0776 | – | 0.0558 | 0.0762 | 0.0435 | 0.0654 | 0.0559 | 0.0618 | – | – | – |
| P94C | 0.122 | – | 0.105 | – | – | – | – | – | 0.0545 | 0.0667 | 0.0592 | 0.0804 | – | 0.0688 | – | – | – | 0.0545 | – |
| E231K | 0.0927 | – | 0.108 | – | – | – | – | – | – | – | – | – | – | – | – | – | – | – | – |
| Q75Y | 0.0764 | 0.0595 | 0.0751 | 0.0602 | 0.0757 | – | 0.0601 | 0.0539 | 0.0615 | – | 0.0539 | – | 0.0545 | – | 0.0648 | 0.0584 | – | – | – |
| P155T | 0.0738 | – | 0.063 | 0.067 | 0.0519 | – | – | 0.0498 | – | 0.0534 | 0.0579 | – | 0.047 | 0.0498 | 0.0599 | – | – | – | – |
| T233I | 0.103 | 0.0954 | 0.0995 | – | – | 0.113 | 0.0614 | 0.0423 | 0.0806 | 0.0526 | – | – | 0.046 | 0.0567 | – | – | 0.0572 | – | 0.0746 |
| D137M | 0.162 | 0.0759 | 0.102 | 0.0706 | 0.0726 | – | 0.0522 | 0.0485 | 0.0661 | – | 0.0673 | 0.0655 | 0.0658 | 0.055 | – | 0.0688 | – | – | – |
